Experimental findings from PubChem BioAssay AID1347073 (National Center for Advancing Translational Sciences (NCATS), 2019) are described below.

The campaign covered roughly 45,000 compounds. About 200 (0.44%) were called active. Roughly 7% stayed inconclusive and do not appear here. The call rests on the fitted dose curve; in most records, active means well fitted activation curve with a large enough effect; inconclusive means small, poorly fitted or top-dose-only effect; inactive means no such curve, though single readings can be large or run the other way. This is one part of the list.

This assay is described as follows: qHTS of TDP-43 Inhibitors: NCGC Sytravon Library Screen. Further: 0% is about no effect; nearly all actives have a fitted effect of over 55% in size. Particulars: yeast TDP-43 toxicity rescue, BacTiter-Glo growth, 24 h; series mostly up to 46.1 µM; growth rescue (activation): at the top concentration. The method, boiled down: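 TDP-43-expressing yeast, pregrown in raffinose, seeded at OD600 0.02 in galactose medium with compound for 24 hr at 30 deg C. Growth read by BacTiter-Glo luminescence, so rescue of toxicity appears as activation.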
On the technique in general: In qHTS, concentration-response curves come from the screen itself.
On to `CNc1c(NS(=O)(=O)c2cc(OC)ccc2OC)c(=O)oc2ccccc12`, for which the “growth rescue (activation)” value is inactive: -22.6%. `N#CCc1ccc(NC(=O)c2ccc(S(=O)(=O)N3CCCC3)cc2)cc1`: the “growth rescue (activation)” value was inactive: -7.07%. Under `COc1ccc(C(C)(O)c2nc(-c3cccc(C(F)(F)F)c3)cs2)cc1` (stereo not drawn) stands inactive: -43.8%; under `CCC1(C)Cc2nc3[nH]c(=S)n(-c4ccc(C)cc4)c(=O)c3cc2CO1` (stereo not drawn), inactive: 6.69%; under `O=C(O)c1ccc(N2C(=O)/C(=C/c3ccc(-c4ccc([N+](=O)[O-])cc4)o3)C=C2c2ccccc2)cc1`, inactive: -1.01%. Then `Cc1ccc(OCC(=O)N2CC(C)CC(C)C2)c([N+](=O)[O-])n1` (stereo not drawn), with inactive: 15.6%; and `CCOC(=O)c1c(/N=C/C2C(=O)CCCC2=O)sc2c1CCCC2`, with inactive: 7.19%. `Oc1c(Br)cc(/C=N/Nc2nncc3ccccc23)cc1Br`: the “growth rescue (activation)” value was inactive: 9.83%. Under `COc1ccccc1NC(=O)Nn1cnnc1` stands inactive: -23.1%. Then `CCS(=O)(=O)N1CCC(C(=O)NCc2ccc(OC)cc2OC)CC1`, with inactive: 4.26%; and `COc1cc(-c2cc3nc(NCc4ccco4)ccn3n2)cc(OC)c1OC`, with inactive: 18.6%; and `COc1ccccc1OCc1nnc(SCC(=O)Nc2nnc(C3CC3)s2)n1C`, with inactive: -13%.

`CCCCNC(=O)CSc1nc2ccccc2n1S(=O)(=O)c1ccc(Br)cc1`: the “growth rescue (activation)” value is inactive: 7%.

`O=C(/C=C/c1ccc(O)cc1)c1ccccc1`: the “growth rescue (activation)” value was inactive: -2%.

`Cc1nn(CCCC(=O)O)c(C)c1[N+](=O)[O-]`: the “growth rescue (activation)” value was inactive: -5.58%. Then `O=C(O)c1ccc(C2Nc3ccccc3-c3nnc(SCc4ccc(Cl)cc4)nc3O2)cc1` (stereo not drawn), with inactive: 10.1%; and `O=C(O)/C=C/C(=O)NCCCc1ccccc1`, with inactive: 12.1%; and `O=C(NC1CCCCC1)c1cc(-c2ccccc2O)on1`, with inactive: 20.9%.

In the case of `O=C(NNC(=O)C1CCCC1)c1ccccc1F`, the “growth rescue (activation)” value is inactive: 4.34%. Then `Cc1ccc(CC(=O)Nc2nccs2)cc1C`, with inactive: 14%; and `COc1ccc(/C=C(/NC(=O)c2cccc([N+](=O)[O-])c2)C(=O)O)cc1OC`, with inactive: -1.06%. Under `COc1cc2c(cc1OC)CN(c1nc(CN3CCOCC3)nc3sc4c(c13)CCC(C)C4)CC2` (stereo not drawn) stands inactive: 4.46%; under `CCCCn1c(=O)nc2n(-c3ccc(F)cc3)c3ccccc3cc-2c1=O`, inactive: 5.97%; under `CCN(c1cc(C)cc(C)c1)S(=O)(=O)c1nnc(NC(=O)C(C)C)s1`, inactive: 1.99%. As for `N/C(COc1ncn(-c2ccccc2)n1)=N\S(=O)(=O)c1ccc(Cl)cc1Cl`, the “growth rescue (activation)” value is inactive: 0.983%. `COc1ccc(S(=O)(=O)N(C)CC(=O)NCc2ccc3c(c2)OCO3)cc1`: the “growth rescue (activation)” value is inactive: 12.7%. Under `CCOc1ccc(Cl)cc1/C=C1/C(=O)ON=C1C` stands inactive: -15.5%; under `Cc1occc1-c1nnc(SCC(N)=O)o1`, inactive: -4.04%; under `CN(Cc1nc(CCc2ccccc2)no1)Cc1cccs1`, inactive: 23.1%. As to `CCOc1ccc(/C=C2\CCC(C3CCCC3)C2=O)cc1` (stereo not drawn), the “growth rescue (activation)” value was inactive: 13.4%.

With `COc1ccc(NC2CCCN(C(=O)CSc3ccncc3)C2)cc1` (stereo not drawn), the “growth rescue (activation)” value was inactive: 11.7%. `O=C(CC1C(=O)NCCN1C/C=C/c1ccccc1)NCCCC1CCCC1` (stereo not drawn): the “growth rescue (activation)” value is inactive: 4.86%. Under `CCc1ccc(NC(=O)CS(=O)CC(=O)Nc2ccc(N3CCOCC3)cc2)cc1` (stereo not drawn) stands inactive: 4.09%. Under `Cc1ccc(C)c(NC(=O)C2(C)CCCN2C(=O)C(C)C)c1` (stereo not drawn) stands inactive: 3.87%; under `CC1=C(C#N)C(c2ccc(O)cc2)C2=C(CCCC2=O)N1` (stereo not drawn), inactive: -9.03%. Then `Cc1cccc(N2CC(C(=O)Nc3ccc(S(=O)(=O)N4CCCCC4)cc3)CC2=O)c1C` (stereo not drawn), with inactive: 23%; and `CN(C)c1ccc(C(CC(=O)c2ccccc2)C2CCCCC2=O)cc1` (stereo not drawn), with inactive: -0.268%. For the compound `O=C(CC(NCCN1CCOCC1)C(=O)O)Nc1cccc(Cl)c1` (stereo not drawn), the “growth rescue (activation)” value was inactive: 5.73%. Consider `O=c1c2ccccc2c(/C=N/c2nnc(Cc3ccccc3)s2)c(O)n1-c1ccc(Cl)cn1`, for which the “growth rescue (activation)” value is inactive: 1.89%. As for `CCN(c1ccccc1)S(=O)(=O)c1ccc(C(=O)Nc2c(C)n(C)n(-c3ccccc3)c2=O)cc1`, the “growth rescue (activation)” value is inactive: -19.8%.

`C/C(=N\NC(=O)c1nnn(-c2nonc2N)c1CSc1ccccc1)c1ccc2c(c1)OCO2`: the “growth rescue (activation)” value was inactive: 4.55%. Under `O=C1/C(=C/c2cccnc2)CC/C1=C\c1cccnc1` stands inactive: -8.6%. Then `C[C@H](NC(=O)c1ccco1)C(=O)Nc1ccc2c(c1)OCO2`, with inactive: 3.75%; and `CCc1nc2ccc(C(=O)Nc3cc(-c4ccccc4)ccc3OC)cn2c1N(C)Cc1ccc(OC)cc1`, with inactive: -43.1%; and `CCOc1ccc(NC(=O)CSc2ncn[nH]2)c([N+](=O)[O-])c1`, with inactive: -5.03%. Under `CC(CN1CCCCC1)C(=O)NN` (stereo not drawn) stands inactive: 17.8%.

In the case of `COc1ccc(CNC(=O)C(c2ccncc2)N(C(=O)Cc2cccs2)c2cccnc2)cc1` (stereo not drawn), the “growth rescue (activation)” value was inactive: 16.5%. Then `O=C(O)C1CCCCC1C(=O)Nc1ccc(S(=O)(=O)N2CCCCCC2)cc1` (stereo not drawn), with inactive: -12%; and `Cc1cccc(NC(=O)c2cccc3c2-c2ccccc2C3=O)n1`, with inactive: 17%.

For the compound `COc1ccc(-n2c(=S)[nH]c3cc(C(=O)NCCCN4CCOCC4)ccc3c2=O)cc1`, the “growth rescue (activation)” value was inactive: 4.6%. Then `Cc1ccc2c(c1)N(CCC(=O)NC1CCCCC1C)C(=O)CO2` (stereo not drawn), with inactive: 5.5%; and `CCOc1cnc(-c2c(-c3c(F)cccc3Cl)noc2C)o1`, with inactive: -23.4%; and `COc1ccccc1-c1csc(C(NC(C)=O)c2ccccc2)n1` (stereo not drawn), with inactive: 0.133%.
